Measured values taken from the supplement of paper PMC9542798.

Legend:
Assay in all cases: minimum inhibitory concentration
Chloramphenicol = compound: O=C(N[C@H](CO)[C@H](O)c1ccc([N+](=O)[O-])cc1)C(Cl)Cl [Chloramphenicol]
Protocol: (§1)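 Broth microdilution MIC per ISO 10932 on precoated VetMIC Lact-1 plates (tylosin, vancomycin and ampicillin plates prepared manually) against lactic acid bacteria and bifidobacteria isolates. Plates were read visually after 48 h anaerobic incubation (bifidobacteria 72 h; enterococci and staphylococci 24 h aerobic) at species-specific temperatures of 30 or 37 °C. Values prefixed with < or > are outside the tested dilution range.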

Kanamycin = compound: NC[C@H]1O[C@H](O[C@H]2[C@H](O)[C@@H](O[C@H]3O[C@H](CO)[C@@H](O)[C@H](N)[C@H]3O)[C@H](N)C[C@@H]2N)[C@H](O)[C@@H](O)[C@@H]1O [Kanamycin]
Protocol: as §1

Gentamicin = compound: CNC(C)C1CCC(N)C(OC2C(N)CC(N)C(OC3OCC(C)(O)C(NC)C3O)C2O)O1 [Gentamicin]
Protocol: as §1

Streptomycin = compound: CN[C@@H]1[C@H](O[C@H]2[C@H](O[C@H]3[C@H](O)[C@@H](O)[C@H](N=C(N)N)[C@@H](O)[C@@H]3N=C(N)N)O[C@@H](C)[C@]2(O)C=O)O[C@@H](CO)[C@H](O)[C@H]1O [Streptomycin]
Protocol: as §1

Clindamycin = compound: CCC[C@@H]1C[C@@H](C(=O)N[C@@H]([C@H]2O[C@H](SC)[C@H](O)[C@@H](O)[C@H]2O)[C@H](C)Cl)N(C)C1 [Clindamycin]
Protocol: as §1

Erythromycin = compound: CC[C@H]1OC(=O)[C@H](C)[C@@H](O[C@H]2C[C@@](C)(OC)[C@@H](O)[C@H](C)O2)[C@H](C)[C@@H](O[C@@H]2O[C@H](C)C[C@H](N(C)C)[C@H]2O)[C@](C)(O)C[C@@H](C)C(=O)[C@H](C)[C@@H](O)[C@]1(C)O [Erythromycin]
Protocol: as §1

Tetracycline = compound: CN(C)[C@@H]1C(O)=C(C(N)=O)C(=O)[C@@]2(O)C(O)=C3C(=O)c4c(O)cccc4[C@@](C)(O)[C@H]3C[C@@H]12 [Tetracycline]
Protocol: as §1

Neomycin = compound: NC[C@@H]1O[C@H](O[C@H]2[C@@H](O)[C@H](O[C@@H]3[C@@H](O)[C@H](N)C[C@H](N)[C@H]3O[C@H]3O[C@H](CN)[C@@H](O)[C@H](O)[C@H]3N)O[C@@H]2CO)[C@H](N)[C@@H](O)[C@@H]1O [Neomycin]
Protocol: as §1

Ampicillin = compound: CC1(C)S[C@@H]2[C@H](NC(=O)[C@H](N)c3ccccc3)C(=O)N2[C@H]1C(=O)O [Ampicillin]
Protocol: as §1

Vancomycin = compound: CN[C@H](CC(C)C)C(=O)N[C@H]1C(=O)N[C@@H](CC(N)=O)C(=O)N[C@H]2C(=O)N[C@H]3C(=O)N[C@H](C(=O)N[C@H](C(=O)O)c4cc(O)cc(O)c4-c4cc3ccc4O)[C@H](O)c3ccc(c(Cl)c3)Oc3cc2cc(c3O[C@@H]2O[C@H](CO)[C@@H](O)[C@H](O)[C@H]2O[C@H]2C[C@](C)(N)[C@H](O)[C@H](C)O2)Oc2ccc(cc2Cl)[C@H]1O [Vancomycin]
Protocol: as §1
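Further: isolates derived from commercial starter, protective, probiotic or feed-additive cultures, from fermented products, from human gut mucosa or feces, and from human milk or colostrum.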

| Test System | minimum inhibitory concentration (Chloramphenicol) | minimum inhibitory concentration (Kanamycin) | minimum inhibitory concentration (Gentamicin) | minimum inhibitory concentration (Streptomycin) | minimum inhibitory concentration (Clindamycin) | minimum inhibitory concentration (Erythromycin) | minimum inhibitory concentration (Tetracycline) | minimum inhibitory concentration (Neomycin) | minimum inhibitory concentration (Ampicillin) | minimum inhibitory concentration (Vancomycin) |
| --- | --- | --- | --- | --- | --- | --- | --- | --- | --- | --- |
| Bifidobacterium adolescentis IM795 (strain group: human intestinal mucosa or faeces) | 2 µg/mL | 1020 µg/mL | 256 µg/mL | > 256 µg/mL | 0.25 µg/mL | 0.25 µg/mL | 1 µg/mL | > 256 µg/mL | 0.125 µg/mL | 0.5 µg/mL |
| Latilactobacillus sakei IM1452 (strain group: starter cultures) | 4 µg/mL | 32 µg/mL | 16 µg/mL | 64 µg/mL | 2 µg/mL | 0.5 µg/mL | 2 µg/mL | 16 µg/mL | 8 µg/mL | 64 µg/mL |
| Lacticaseibacillus casei IM1380 (strain group: probiotic strains) | 8 µg/mL | 32 µg/mL | 1 µg/mL | 16 µg/mL | 4 µg/mL | 0.25 µg/mL | 2 µg/mL | 2 µg/mL | 1 µg/mL | > 128 µg/mL |
| Lactobacillus gasseri IM889 (strain group: human milk or colostrum) | 4 µg/mL | 128 µg/mL | 4 µg/mL | 8 µg/mL | 8 µg/mL | 0.25 µg/mL | 2 µg/mL | 32 µg/mL | 1 µg/mL | 1 µg/mL |
| Bifidobacterium animalis IM774 (strain group: human intestinal mucosa or faeces) | 2 µg/mL | 512 µg/mL | 256 µg/mL | 128 µg/mL | 0.12 µg/mL | 0.25 µg/mL | 16 µg/mL | 256 µg/mL | 0.125 µg/mL | 0.5 µg/mL |
| Lactobacillus gasseri IM822 (strain group: human milk or colostrum) | 4 µg/mL | 64 µg/mL | 2 µg/mL | 8 µg/mL | 4 µg/mL | 0.06 µg/mL | 1 µg/mL | 8 µg/mL | 0.5 µg/mL | 1 µg/mL |
| Bifidobacterium adolescentis IM760 (strain group: human intestinal mucosa or faeces) | 2 µg/mL | 1020 µg/mL | 256 µg/mL | 256 µg/mL | 0.12 µg/mL | 0.12 µg/mL | 1 µg/mL | 128 µg/mL | 0.063 µg/mL | 0.5 µg/mL |
| Bifidobacterium animalis IM665 (strain group: human intestinal mucosa or faeces) | 2 µg/mL | 1020 µg/mL | 128 µg/mL | 256 µg/mL | 0.12 µg/mL | 0.25 µg/mL | 16 µg/mL | 256 µg/mL | 0.25 µg/mL | 0.5 µg/mL |
| Lactobacillus acidophilus IM1385 (strain group: probiotic strains) | 4 µg/mL | 32 µg/mL | 2 µg/mL | 4 µg/mL | 0.5 µg/mL | 0.12 µg/mL | 0.5 µg/mL | 4 µg/mL | 1 µg/mL | 0.5 µg/mL |
| Schleiferilactobacillus harbinensis IM1358 (strain group: non-starter strains) | 4 µg/mL | 16 µg/mL | 2 µg/mL | 1 µg/mL | 0.5 µg/mL | 0.5 µg/mL | 0.5 µg/mL | 4 µg/mL | 2 µg/mL | > 128 µg/mL |
| Bifidobacterium adolescentis IM763 (strain group: human intestinal mucosa or faeces) | 2 µg/mL | 1020 µg/mL | 128 µg/mL | 256 µg/mL | 0.06 µg/mL | 0.12 µg/mL | 1 µg/mL | 128 µg/mL | 0.125 µg/mL | 0.5 µg/mL |
| Lactobacillus gasseri IM856 (strain group: human milk or colostrum) | 4 µg/mL | 128 µg/mL | 2 µg/mL | 2 µg/mL | 4 µg/mL | 0.12 µg/mL | 2 µg/mL | 8 µg/mL | 1 µg/mL | 1 µg/mL |
| Bifidobacterium adolescentis IM804 (strain group: human intestinal mucosa or faeces) | 2 µg/mL | 512 µg/mL | 256 µg/mL | 128 µg/mL | 0.12 µg/mL | 0.25 µg/mL | 16 µg/mL | 256 µg/mL | 0.063 µg/mL | 0.5 µg/mL |
| Streptococcus thermophilus IM1416 (strain group: starter cultures) | 2 µg/mL | 64 µg/mL | 4 µg/mL | 16 µg/mL | 0.25 µg/mL | 0.12 µg/mL | 0.5 µg/mL | 8 µg/mL | 1 µg/mL | 1 µg/mL |
| Bifidobacterium adolescentis IM663 (strain group: human intestinal mucosa or faeces) | 2 µg/mL | 512 µg/mL | 64 µg/mL | 64 µg/mL | 4 µg/mL | 0.25 µg/mL | 2 µg/mL | 128 µg/mL | 0.25 µg/mL | 0.5 µg/mL |
| Lactobacillus gasseri IM823 (strain group: human milk or colostrum) | 4 µg/mL | 64 µg/mL | 2 µg/mL | 8 µg/mL | 8 µg/mL | 0.12 µg/mL | 2 µg/mL | 16 µg/mL | 0.5 µg/mL | 1 µg/mL |

| Test System | minimum inhibitory concentration (Chloramphenicol) | minimum inhibitory concentration (Kanamycin) | minimum inhibitory concentration (Gentamicin) | minimum inhibitory concentration (Streptomycin) | minimum inhibitory concentration (Clindamycin) | minimum inhibitory concentration (Erythromycin) | minimum inhibitory concentration (Tetracycline) | minimum inhibitory concentration (Neomycin) | minimum inhibitory concentration (Ampicillin) | minimum inhibitory concentration (Vancomycin) |
| --- | --- | --- | --- | --- | --- | --- | --- | --- | --- | --- |
| Bifidobacterium adolescentis IM781 (strain group: human intestinal mucosa or faeces) | 2 µg/mL | 256 µg/mL | 128 µg/mL | 256 µg/mL | 0.12 µg/mL | 0.25 µg/mL | 1 µg/mL | 128 µg/mL | < 0.032 µg/mL | 1 µg/mL |
| Lactobacillus gasseri IM821 (strain group: human milk or colostrum) | 4 µg/mL | 64 µg/mL | 2 µg/mL | 2 µg/mL | 4 µg/mL | 0.12 µg/mL | 2 µg/mL | 16 µg/mL | 1 µg/mL | 1 µg/mL |
| Bifidobacterium adolescentis IM662 (strain group: human intestinal mucosa or faeces) | 2 µg/mL | 1020 µg/mL | 128 µg/mL | > 256 µg/mL | 4 µg/mL | 0.25 µg/mL | 2 µg/mL | 256 µg/mL | 0.125 µg/mL | 0.5 µg/mL |
| Bifidobacterium adolescentis IM683 (strain group: human intestinal mucosa or faeces) | 2 µg/mL | 128 µg/mL | 32 µg/mL | 32 µg/mL | 0.12 µg/mL | 0.06 µg/mL | 1 µg/mL | 64 µg/mL | < 0.032 µg/mL | 0.5 µg/mL |
| Lactobacillus gasseri/johnsonii IM859 (strain group: human milk or colostrum) | 4 µg/mL | 128 µg/mL | 2 µg/mL | 16 µg/mL | 8 µg/mL | 0.12 µg/mL | 4 µg/mL | 16 µg/mL | 1 µg/mL | 2 µg/mL |
| Bifidobacterium animalis subsp. lactis IM560 (strain group: probiotic strains) | 2 µg/mL | 256 µg/mL | 64 µg/mL | 64 µg/mL | 0.12 µg/mL | 0.25 µg/mL | 16 µg/mL | 64 µg/mL | 0.125 µg/mL | 0.5 µg/mL |
| Lactococcus lactis IM1467 (strain group: starter cultures) | 4 µg/mL | 32 µg/mL | 1 µg/mL | 16 µg/mL | 0.12 µg/mL | 0.25 µg/mL | 2 µg/mL | 16 µg/mL | 0.5 µg/mL | 0.5 µg/mL |
| Lactobacillus gasseri IM926 (strain group: human milk or colostrum) | 4 µg/mL | 64 µg/mL | 2 µg/mL | 4 µg/mL | 8 µg/mL | 0.25 µg/mL | 2 µg/mL | 128 µg/mL | 0.5 µg/mL | 1 µg/mL |
| Bifidobacterium longum IM982 (strain group: human intestinal mucosa or faeces) | 1 µg/mL | 512 µg/mL | 32 µg/mL | 32 µg/mL | 0.06 µg/mL | 0.12 µg/mL | 1 µg/mL | 128 µg/mL | 0.5 µg/mL | < 0.25 µg/mL |
| Bifidobacterium animalis IM666 (strain group: human intestinal mucosa or faeces) | 2 µg/mL | 512 µg/mL | 128 µg/mL | > 256 µg/mL | 0.12 µg/mL | 0.25 µg/mL | 16 µg/mL | 256 µg/mL | 0.125 µg/mL | 0.5 µg/mL |
| Bifidobacterium adolescentis IM764 (strain group: human intestinal mucosa or faeces) | 1 µg/mL | 256 µg/mL | 64 µg/mL | 32 µg/mL | < 0.03 µg/mL | < 0.016 µg/mL | 0.5 µg/mL | 64 µg/mL | 0.125 µg/mL | < 0.25 µg/mL |
| Bifidobacterium adolescentis IM793 (strain group: human intestinal mucosa or faeces) | 2 µg/mL | 256 µg/mL | 64 µg/mL | 32 µg/mL | 0.06 µg/mL | 0.12 µg/mL | 16 µg/mL | 64 µg/mL | 0.25 µg/mL | 0.5 µg/mL |
| Lactobacillus gasseri IM656 (strain group: human intestinal mucosa or faeces) | 4 µg/mL | 64 µg/mL | 2 µg/mL | 16 µg/mL | 2 µg/mL | 0.06 µg/mL | 4 µg/mL | 16 µg/mL | 0.5 µg/mL | 1 µg/mL |
| Levilactobacillus brevis IM1361 (strain group: non-starter strains) | 8 µg/mL | 16 µg/mL | < 0.5 µg/mL | 8 µg/mL | 16 µg/mL | 0.5 µg/mL | 32 µg/mL | 1 µg/mL | 4 µg/mL | > 128 µg/mL |
| Streptococcus thermophilus IM1351 (strain group: non-starter strains) | 2 µg/mL | 32 µg/mL | 2 µg/mL | 16 µg/mL | 0.06 µg/mL | 0.5 µg/mL | 1 µg/mL | 8 µg/mL | 0.25 µg/mL | < 0.25 µg/mL |
| Bifidobacterium animalis subsp. lactis IM1114 (strain group: probiotic strains) | 2 µg/mL | 512 µg/mL | 128 µg/mL | 32 µg/mL | < 0.03 µg/mL | 0.06 µg/mL | 16 µg/mL | 16 µg/mL | 0.25 µg/mL | 1 µg/mL |
